Test results from PMC9911399, “Two distinct binding modes provide the RNA-binding protein RbFox with extraordinary sequence specificity”.
Positions count from the first letter of the chain named. The list shows a part of the results.

T1: RBFOX1 RRM (Homo sapiens, UniProt Q9NWB1 109-208)
T1 sequence: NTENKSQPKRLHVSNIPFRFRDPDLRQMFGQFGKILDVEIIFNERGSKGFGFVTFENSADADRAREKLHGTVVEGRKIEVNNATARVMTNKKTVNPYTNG

B1: GAGACAG (DNA:RNA)
RNA: GGGAGACCGGAAUUCAGAUUGUCCGAGACAGUUAAAUCCCGUCGUAGCCACCA
DNA 1: CAATCTGAATTCCGGTCTCCC
DNA 2: TGGTGGCTACGACGGGATT
B2: GGCCUUA (DNA:RNA)
RNA: B1 RNA with A26G, G27C, A28C, C29U, A30U, G31A
DNA 1: CAATCTGAATTCCGGTCTCCC
DNA 2: TGGTGGCTACGACGGGATT
B3: AGAUGCG (DNA:RNA)
RNA: B1 RNA with G25A, A26G, G27A, A28U, C29G, A30C
DNA 1: CAATCTGAATTCCGGTCTCCC
DNA 2: TGGTGGCTACGACGGGATT
B4: CCACCAU (DNA:RNA)
RNA: B1 RNA with G25C, A26C, G27A, A28C, G31U
DNA 1: CAATCTGAATTCCGGTCTCCC
DNA 2: TGGTGGCTACGACGGGATT
B5: CAAGGAG (DNA:RNA)
RNA: B1 RNA with G25C, G27A, A28G, C29G
DNA 1: CAATCTGAATTCCGGTCTCCC
DNA 2: TGGTGGCTACGACGGGATT
B6: CUUCUAG (DNA:RNA)
RNA: B1 RNA with G25C, A26U, G27U, A28C, C29U
DNA 1: CAATCTGAATTCCGGTCTCCC
DNA 2: TGGTGGCTACGACGGGATT
B7: ACCAUCU (DNA:RNA)
RNA: B1 RNA with G25A, A26C, G27C, C29U, A30C, G31U
DNA 1: CAATCTGAATTCCGGTCTCCC
DNA 2: TGGTGGCTACGACGGGATT
B8: AAAUGAC (DNA:RNA)
RNA: B1 RNA with G25A, G27A, A28U, C29G, G31C
DNA 1: CAATCTGAATTCCGGTCTCCC
DNA 2: TGGTGGCTACGACGGGATT
B9: GUGUCCG (DNA:RNA)
RNA: B1 RNA with A26U, A28U, A30C
DNA 1: CAATCTGAATTCCGGTCTCCC
DNA 2: TGGTGGCTACGACGGGATT
B10: GCGCCUC (DNA:RNA)
RNA: B1 RNA with A26C, A28C, A30U, G31C
DNA 1: CAATCTGAATTCCGGTCTCCC
DNA 2: TGGTGGCTACGACGGGATT
B11: CGGUGAA (DNA:RNA)
RNA: B1 RNA with G25C, A26G, A28U, C29G, G31A
DNA 1: CAATCTGAATTCCGGTCTCCC
DNA 2: TGGTGGCTACGACGGGATT
B12: CUCUCGA (DNA:RNA)
RNA: B1 RNA with G25C, A26U, G27C, A28U, A30G, G31A
DNA 1: CAATCTGAATTCCGGTCTCCC
DNA 2: TGGTGGCTACGACGGGATT
B13: AUUCAUU (DNA:RNA)
RNA: GGGAGACCGGAAUUCAGAUUGUCCAUUCAUUUUAAAUCCCGUCGUAGCCACCA
DNA 1: CAATCTGAATTCCGGTCTCCC
DNA 2: TGGTGGCTACGACGGGATT
B14: CCGAUGU (DNA:RNA)
RNA: B1 RNA with G25C, A26C, C29U, A30G, G31U
DNA 1: CAATCTGAATTCCGGTCTCCC
DNA 2: TGGTGGCTACGACGGGATT
B15: UGACGAU (DNA:RNA)
RNA: B13 RNA with A25U, U26G, U27A, A29G, U30A
DNA 1: CAATCTGAATTCCGGTCTCCC
DNA 2: TGGTGGCTACGACGGGATT
B16: CCGGUGG (DNA:RNA)
RNA: B1 RNA with G25C, A26C, A28G, C29U, A30G
DNA 1: CAATCTGAATTCCGGTCTCCC
DNA 2: TGGTGGCTACGACGGGATT
B17: AUAGUAU (DNA:RNA)
RNA: B13 RNA with U27A, C28G, A29U, U30A
DNA 1: CAATCTGAATTCCGGTCTCCC
DNA 2: TGGTGGCTACGACGGGATT
B18: GGUGACG (DNA:RNA)
RNA: B13 RNA with A25G, U26G, C28G, U30C, U31G
DNA 1: CAATCTGAATTCCGGTCTCCC
DNA 2: TGGTGGCTACGACGGGATT
B19: AGCAUAG (DNA:RNA)
RNA: B1 RNA with G25A, A26G, G27C, C29U
DNA 1: CAATCTGAATTCCGGTCTCCC
DNA 2: TGGTGGCTACGACGGGATT
B20: ACUGGCU (DNA:RNA)
RNA: B13 RNA with U26C, C28G, A29G, U30C
DNA 1: CAATCTGAATTCCGGTCTCCC
DNA 2: TGGTGGCTACGACGGGATT
B21: AGUGAAA (DNA:RNA)
RNA: B13 RNA with U26G, C28G, U30A, U31A
DNA 1: CAATCTGAATTCCGGTCTCCC
DNA 2: TGGTGGCTACGACGGGATT
B22: UAUGCUU (DNA:RNA)
RNA: B13 RNA with A25U, U26A, C28G, A29C
DNA 1: CAATCTGAATTCCGGTCTCCC
DNA 2: TGGTGGCTACGACGGGATT
B23: AGAAGCU (DNA:RNA)
RNA: B13 RNA with U26G, U27A, C28A, A29G, U30C
DNA 1: CAATCTGAATTCCGGTCTCCC
DNA 2: TGGTGGCTACGACGGGATT
B24: UCAGGCU (DNA:RNA)
RNA: B13 RNA with A25U, U26C, U27A, C28G, A29G, U30C
DNA 1: CAATCTGAATTCCGGTCTCCC
DNA 2: TGGTGGCTACGACGGGATT
B25: AAGGCAA (DNA:RNA)
RNA: B1 RNA with G25A, A28G, G31A
DNA 1: CAATCTGAATTCCGGTCTCCC
DNA 2: TGGTGGCTACGACGGGATT
B26: UUCUUUG (DNA:RNA)
RNA: B13 RNA with A25U, U27C, C28U, A29U, U31G
DNA 1: CAATCTGAATTCCGGTCTCCC
DNA 2: TGGTGGCTACGACGGGATT
B27: CCAAACA (DNA:RNA)
RNA: B13 RNA with A25C, U26C, U27A, C28A, U30C, U31A
DNA 1: CAATCTGAATTCCGGTCTCCC
DNA 2: TGGTGGCTACGACGGGATT
B28: AUGGGGC (DNA:RNA)
RNA: B13 RNA with U27G, C28G, A29G, U30G, U31C
DNA 1: CAATCTGAATTCCGGTCTCCC
DNA 2: TGGTGGCTACGACGGGATT
B29: GGCCUCG (DNA:RNA)
RNA: B1 RNA with A26G, G27C, A28C, C29U, A30C
DNA 1: CAATCTGAATTCCGGTCTCCC
DNA 2: TGGTGGCTACGACGGGATT
B30: UUUUGUC (DNA:RNA)
RNA: B13 RNA with A25U, C28U, A29G, U31C
DNA 1: CAATCTGAATTCCGGTCTCCC
DNA 2: TGGTGGCTACGACGGGATT
B31: UGUAUCC (DNA:RNA)
RNA: B13 RNA with A25U, U26G, C28A, A29U, U30C, U31C
DNA 1: CAATCTGAATTCCGGTCTCCC
DNA 2: TGGTGGCTACGACGGGATT

Molecular target: T1, RBFOX1 RRM
Assay: EMSA; HiTS-Eq, 1 nM pool, 10 min; buffer printed only for the single-RNA assays: 10 mM Tris pH 7.5, 150 mM NaCl, 3.4 mM EDTA, 0.001% NP-40, 30 C
Details: tags: His6 N-terminal (pET28a); label: 5' 32P
Outline: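 Relative association constants, normalised to the cognate motif, were derived by comparing read counts of each RNA species with those of the control reaction. The RNA sequenced was the free fraction, separated by 8% native PAGE after a 10 min equilibration in 50 µL of 1 nM 5′-radiolabelled RNA (7 randomized nucleotides) with increasing concentrations of purified wild-type or mutant RbFox RRM.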

Point of comparison: B12, binding signal 0.00919 KA relative to UGCAUGU. Against it:
- B1 — higher, 0.0106 KA relative to UGCAUGU
- B2 — lower, 0.00694 KA relative to UGCAUGU
- B3 — higher, 0.013 KA relative to UGCAUGU
- B4 — lower, 0.000756 KA relative to UGCAUGU
- B5 — lower, 0.00606 KA relative to UGCAUGU
- B6 — lower, 0.00709 KA relative to UGCAUGU
- B7 — lower, 0.000184 KA relative to UGCAUGU
- B8 — lower, 0.00578 KA relative to UGCAUGU
- B9 — higher, 0.016 KA relative to UGCAUGU
- B10 — higher, 0.0125 KA relative to UGCAUGU
- B11 — higher, 0.0116 KA relative to UGCAUGU
- B13 — lower, 0.000676 KA relative to UGCAUGU
- B14 — higher, 0.0124 KA relative to UGCAUGU
- B15 — higher, 0.019 KA relative to UGCAUGU
- B16 — lower, 0.00898 KA relative to UGCAUGU
- B17 — lower, 0.00289 KA relative to UGCAUGU
- B18 — higher, 0.0138 KA relative to UGCAUGU
- B19 — higher, 0.0115 KA relative to UGCAUGU
- B20 — higher, 0.0162 KA relative to UGCAUGU
- B21 — lower, 0.00902 KA relative to UGCAUGU
- B22 — higher, 0.0103 KA relative to UGCAUGU
- B23 — lower, 0.00454 KA relative to UGCAUGU
- B24 — higher, 0.0162 KA relative to UGCAUGU
- B25 — lower, 0.00425 KA relative to UGCAUGU
- B26 — higher, 0.0304 KA relative to UGCAUGU
- B27 — lower, 0.000511 KA relative to UGCAUGU
- B28 — higher, 0.0109 KA relative to UGCAUGU
- B29 — higher, 0.0181 KA relative to UGCAUGU
- B30 — higher, 0.0234 KA relative to UGCAUGU
- B31 — lower, 0.00808 KA relative to UGCAUGU
